Experimental data as given in PubChem BioAssay AID1508623 (National Center for Advancing Translational Sciences (NCATS), 2021).
The campaign covered roughly 48,000 compounds. About 450 (0.94%) were called active. About 19% were inconclusive and are not listed. Calls come from the whole dose curve; as a rule, active = well fitted inhibition curve with a large enough effect; inconclusive = small, poorly fitted or top-dose-only effect; inactive = no such curve, though single readings can be large or run the other way. This is one part of the list.

Experiment: Primary qHTS for Identification of Small Molecule Inhibitors of Huntingtin Promoter Activity; note: nearly all actives have a fitted effect of over 50% in size
Conditions: HEK293 HTT promoter firefly luciferase reporter (activity 0% = vehicle and -100% = no light), 24 h; series mostly up to 57.5 µM; activity change, negative = inhibition: at the top concentration
Procedure, shortened: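 Luminescence was read after Dual-Glo reagent and a 10 min room-temperature incubation. Values were normalized to vehicle (0% activity) and zero RLU (-100% activity). Reporter HEK293 cells had been exposed to compounds (up to 57.5 uM final) for 24 h.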

Activity change, negative = inhibition, inactive:
COCCn1c(C)cc(O)c(C(c2ccc(OC)cc2)N2CCCCC2)c1=O (stereo not drawn) -17%, CC(=O)Oc1cccc2c1C(=O)c1c(OC(C)=O)cc(C(=O)O)cc1C2=O -1.96%, Cc1ccccc1NC(=O)CSCn1nnc2c(=O)[nH]c(Cc3ccc(F)cc3)nc21 -7.51%, CCCC(=O)Nc1ccc2nc(SCCOc3ccccc3)sc2c1 -6.28%, CCCN1Cc2cccc(C(=O)Nc3ccccc3F)c2C1=O -12.1%, COc1ccc(Cl)cc1NC(=O)c1c(NCc2cccnc2)sc2c1CCCC2 -27.4%, CC(C)(C)OC(=O)N1CCC(c2c(C(=O)NCCc3ccsc3)cnn2-c2ccc(F)cc2F)CC1 -13.3%, COc1ccccc1C(=O)Nc1nnc(S(=O)(=O)N2CCCCC2)s1 33%, COc1ccc2ncc3c(-c4ccccc4)nn(-c4ccc(C)c(C)c4)c3c2c1 -5.83%, Cc1ccccc1NC(=O)Cn1c(=O)n(Cc2ccco2)c(=O)c2ccc(C(=O)NC3CCCC3)cc21 -10.1%, Cc1cc(-c2ccccc2)nc2cc(C(=O)Nc3ccc(Cl)c(Cl)c3)nn12 -1.21%, COc1ccccc1C(=O)NC1(C(F)(F)F)C(=O)NC(C)=C1C#N (stereo not drawn) -11.8%, COc1ccccc1N1CCN(C(=O)C2CCN(S(=O)(=O)c3cccs3)CC2)CC1 -3.54%, Cc1ccccc1NC(=O)Cn1nnc(C(=O)NCc2ccco2)c1N -20.4%, COc1cc(OC)c(NC(=O)c2nn(C)c3c2COc2ccccc2-3)cc1Cl -9.18%, Cc1ccc(C)c(Cn2c(=O)n(CCc3ccccc3)c(=O)c3c(C)c(C)sc32)c1 10.4%, COc1ccc(Cn2nc3n(c2=O)-c2ccccc2OC3)cc1 10%, Cc1cccc(C(=O)Nc2nnc(S(=O)(=O)N3CCOCC3)s2)c1 13.5%, Cc1ccc(-c2nnc(Nc3cccc(Br)c3)c3ccccc23)cc1S(=O)(=O)N1CCN(C)CC1 -16.8%, O=C(Nc1ccccc1)c1cc2c(-c3ccccc3)nn(-c3ccccc3)c2s1 -8.79%, CCOc1ccc(OC(=O)c2sc3ncn(Cc4cccc(F)c4)c(=O)c3c2C)cc1 -21.1%, O=C(CSc1c2c(nc3ccc(Cl)cc13)CCCC2)N1CCN(c2ccc(Cl)cc2)CC1 2.12%, COc1ccc(OC)c(NC(=O)C(Cc2ccccc2)NS(=O)(=O)c2ccc3c(c2)CCC(=O)N3)c1 (stereo not drawn) -9.19%, CCN(CC)S(=O)(=O)c1ccc2c(c1)N(CC(=O)Nc1cccc(C(C)=O)c1)C(=O)CO2 -15.5%, O=C(Nc1ccc(Br)cc1)Nc1nc2c(s1)CCCCCC2 -10.4%, O=C(COCc1cc(-c2ccc3c(c2)OCO3)on1)Nc1cccc(O)c1 -3.6%, CCC(=O)N1c2ccccc2CC1C(=O)NCCCN1CCN(c2ccc(F)cc2)CC1 (stereo not drawn) -2.54%, Cc1ncc(CSSCc2cnc(C)c(O)c2CO)c(CO)c1O 5.54%, Cc1cccc(C(=O)n2nc(-c3ccco3)nc2NCc2ccccc2)c1 26.1%, COc1ccc(-c2cc(C(F)(F)F)nc(NCc3ccccc3)n2)cc1OC -26.9%, CC1CCc2c(sc3nnn(CC(=O)Nc4cccc(C(F)(F)F)c4)c(=O)c23)C1 (stereo not drawn) -24.9%, CCc1ccc2oc(-c3cccc(NC(=O)c4ccc(-c5cccc([N+](=O)[O-])c5)o4)c3)nc2c1 46.1%, CCOc1ccc(Br)cc1C1C(C(=O)Nc2ccccc2OC)=C(C)Nc2nnnn21 (stereo not drawn) -17.5%, Cc1cccc(OC(C)C(=O)N2CCC(c3nc4ccccc4o3)CC2)c1C (stereo not drawn) -21.2%, CCn1c(=O)c(=O)n(CC)c2cc(N3CCCCC3)c(NC(=O)c3cccc(OC)c3)cc21 -5.5%, CC(=O)N1c2ccc(S(=O)(=O)NCCc3cccc(C)c3)cc2CC1C (stereo not drawn) 0%, CCOc1cccc(NC(=O)CSc2ncc(-c3ccc(Cl)cc3)[nH]2)c1 -18.8%, COc1ccc(-n2c(=O)c3c4c(sc3n(Cc3ccccc3)c2=O)CCC4)c(OC)c1 -27.5%, CC1(C)OC(=O)NC1=O 2.02%, Cc1ccc(NC(=O)CC2Sc3ccccc3NC2=O)c(C)c1 (stereo not drawn) -26.2%, CCOC(=O)c1ccc(-c2ccc(/C=C(\C#N)C(=O)Nc3cccc(C)c3)o2)cc1 4.41%, CN(N=O)C(=O)N[C@H]1C(O)OC(CO)[C@@H](O)[C@H]1O (stereo partly drawn) 2.82%, CCN(C(=O)c1cc(S(=O)(=O)N2CCCCC2)c[nH]1)c1ccc(OC)cc1 -18.9%, CCOc1ccc(-n2c(-c3ccc(OC)cc3)cc3c2CC(C)(C)CC3=O)cc1 -33.7%, C=Cc1ccc(CSc2nc(-c3ccc(Cl)cc3)nc3c2Cc2c(CO)cnc(C)c2O3)cc1 -17.2%, COc1cc(Cl)c(C)cc1NC(=O)CSCc1nc(-c2ccc(OC)c(OC)c2)no1 -17.9%, Cc1ccc(C)c(Cn2cc(CCC(=O)NC3CCCCC3)c3ccccc32)c1 -17.7%, Cc1cccc(C)c1NC(=O)C1CCN(S(=O)(=O)c2cccc3nsnc23)CC1 -5.43%, Cc1ccc(NC(=O)Cn2ccn(Cc3ccc(Cl)cc3)c(=O)c2=O)cc1C -0.612%, COc1ccc(-c2nc(SCC(=O)NC3CCCC3)c(-c3ccccc3)[nH]2)cc1OC -3.85%, COc1ccc(OC)c(Nc2cc(C(=O)NCc3ccccc3)c3ccccc3n2)c1 -21.6%, Cc1ccc(-n2ncc3c(Nc4ccc5c(c4)OCCO5)ncnc32)cc1C -9.05%, CCOc1ccccc1C(=O)N1CCc2cc(OC)c(OC)cc2C1COc1ccc2c(C)cc(=O)oc2c1 (stereo not drawn) -17.3%, Cc1ccc(OCCSc2nc3ccccc3n2CCC(=O)O)cc1C 2.18%, CCOc1ccc(NC(=O)NC(CC)Cn2nnc3ccccc3c2=O)cc1 (stereo not drawn) -6.84%, CCN1CCN(C(c2ccc(Cl)cc2)c2c(O)cc(C)n(CCOC)c2=O)CC1 (stereo not drawn) -10.4%, Cc1nc2ncnn2c(C)c1CCC(=O)NCc1ccc(Cl)cc1 -7.08%, O=C(CSc1ncc(S(=O)(=O)c2ccc(Br)cc2)c(=O)[nH]1)NCc1ccccc1Cl -15.5%, COc1ccc(-c2cc(C(=O)Oc3ccc(Cl)cc3)c3ccccc3n2)cc1 26.5%, CCCCn1cnc2cc(NC(=O)c3cc(OC)c(OC)c(OC)c3)ccc21 -10.3%, CCC(=O)N1CCc2cc(S(=O)(=O)NC(Cc3ccccc3)C(=O)Nc3ccc(Cl)cc3)ccc21 (stereo not drawn) -28.5%, CCCC(=O)Nc1c(C(=O)N2CCN(c3ccccc3)CC2)oc2ccccc12 -24.8%, CCc1ccccc1NC(=O)C1=CC(c2ccc3c(c2)OCO3)=NS(=O)(=O)N1C -16.6%, COc1ccccc1C(=O)CC1(O)C(=O)N(CC(N)=O)c2ccccc21 (stereo not drawn) 3.66%, CCOc1ccccc1NC(=O)Cn1c(=O)n(Cc2ccco2)c(=O)c2cccnc21 -11%, CC(C)(C)OC(=O)N1CCC(c2c(C(=O)O)cnn2-c2ccc(F)cc2F)CC1 6.97%, Fc1ccc(-c2nnc(CN3CCN(c4ccccn4)CC3)o2)cc1 -11.6%, CCc1ccccc1N(C)C(=O)c1cc2c(s1)-c1c(C)cccc1OC2 -15.8%, Cc1ccc(Cn2c(C)c(CNCc3ccccc3F)c(C(=O)O)c2C)cc1 -12.4%, O=C(Cn1ncc2c3ccccc3n(Cc3ccccc3)c2c1=O)NCc1ccccc1 17.9%, COc1cc(C2C(C(=O)Nc3ccccc3)=C(C)Nc3nc(SCC(=O)c4ccc(C)cc4)nn32)ccc1O (stereo not drawn) 9.76%, CCC[C@H](N[C@@H](C)C(=O)N1[C@H](C(=O)O)C[C@@H]2CCCC[C@@H]21)C(=O)OCC 8.76%, CCc1ccc(S(=O)(=O)c2nnn3c2nc(N2CCN(CC)CC2)c2sccc23)cc1 2.06%, Cc1ccc(NC(=O)CSc2nc3ccc(NC(=O)c4cccc(Cl)c4)cc3s2)c(C)c1 -7.91%, COc1ccccc1C(=O)Nc1ccc(-c2nc3cc(C)cc(C)c3o2)cc1 6.21%, Cc1ccc(CN(Cc2cccn2-c2nnc(N3CCCC3=O)s2)C(=O)Nc2cc(C)cc(C)c2)cc1 -34.1%, Cc1nc2sc(C)c(C)n2c(=O)c1S(=O)(=O)NCCc1ccc(Cl)cc1 -7.29%, COc1cccc(CN2C(=O)C3(SCC(=O)N3c3ccc(F)cc3)c3ccccc32)c1 (stereo not drawn) -40.3%, COc1ccc(-c2nc3c(c(SCC(=O)Nc4cc(C)cc(C)c4)n2)Cc2c(CO)cnc(C)c2O3)cc1 5.56%, Cc1ccc(CN(Cc2ccco2)C(=O)c2ccccc2Cl)o1 -14.3%, O=C(NCc1cccc(Cl)c1)c1ccc2c(c1)nc1n2CCOC1 9.13%, CC(=O)c1ccc(NC(=O)c2cn(C)c(=O)c3ccccc23)cc1 9.49%, O=C(NC1CC(=O)N(c2ccccc2)C1)c1cccs1 (stereo not drawn) -20.5%, Cc1cccc(C(=O)Nc2nc3c(s2)CCCC3)c1 -4.01%, CCOC(=O)N1CCc2c(sc3c2c(=O)n(CCc2ccccc2)c(=O)n3Cc2ccc(C)cc2C)C1 -4.17%, COc1ccc(NS(=O)(=O)c2ccc(N)cc2)nn1 9.46%, COc1ccc(-c2nc(CCNC(=O)Cc3ccc(F)cc3)cs2)cc1 -23.9%, Nc1ccc(C(=O)NCC(=O)O)cc1 1.15%, CSc1ccc(CCNC(=O)c2ccc3c(c2)nc2n3CCC(C)C2)cc1 (stereo not drawn) 1.06%, CCOCCc1nn2c(=O)cc(COC(=O)c3ccccc3NC(=O)c3cccs3)nc2s1 0%, CCc1ccccc1NC(=O)N1CC(CC)Oc2ccc(Cl)cc21 (stereo not drawn) -20.3%, COc1ccc(N2CCN(C(=O)c3c(C)nn(-c4ccc(F)cc4)c3-n3cccc3)CC2)cc1 -22.5%, COc1ccc(NC(=O)CSc2nc3ccccc3n2CC(=O)NCc2ccc(F)cc2)cc1 -26.3%, CCCCSCCCNC(=O)c1cn(CC)c2ccc(S(=O)(=O)N3CCOCC3)cc2c1=O -6.79%, CCOc1ccc(NC(=O)CSc2nnc3c(C)cc4ccccc4n23)cc1 3.01%, Nc1ccc(S(=O)(=O)c2ccc(N)cc2)cc1 4.36%, COC(=O)c1ccccc1NC(=O)Cn1nc(C)c2nn(-c3ccc(Cl)cc3)c(C)c2c1=O -15.7%, OC[C@H]1O[C@@H](Oc2ccc(O)cc2)[C@H](O)[C@@H](O)[C@@H]1O 9.95%
